± gives the standard deviation of the averaged measurements. Some of the results follow.
These sequences were tested on PfAP2-I AP2 domain 3 (GST-tagged) (assay: gcPBM binding intensity (ln(normalized median fluorescence intensity)); higher = stronger DNA binding).
In short: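 Plasmodium falciparum DNA-binding domains carrying a GST tag were expressed in E. coli and applied for 1 h, at about 25 μg on average, to an Agilent 4 × 180k array. The array held primer-extended double-stranded 36-bp intergenic genomic probes together with negative controls, and binding took place in 1× PBS with 1% milk, 0.2 mg/ml BSA, 0.5% salmon testes DNA and 0.03% Triton X-100. An Alexa488 anti-GST antibody detected bound protein, and the array was scanned at 488 nm. Binding intensity is taken as the highest Masliner-normalised natural-log median intensity across replicate spots of either probe orientation.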

Sequence | gcPBM binding intensity (ln)
TTATTTACAACTTCAAATTATGTGTAATACTACTAT [CACACA_negctrl_site741] | 7.71 ± 0.5
TAAAAAAAAACTCATGCACACAATATTATGAAAAAG [CACACA_site665] | 8.26 ± 0.58
TTTTTTTCTTTTTACATACACACAAAAAAATAAAAT [CACACA_site580] | 7.98 ± 0.45
AGCACATTATTCAAAAGTACAAATAGGTATTGTATA [XGTACX_site6107] | 7.63 ± 0.49
AATATAAAAAAAAAAAAAAAAAAAAAAAAAAAGACA [CACACA_negctrl_site983] | 7.66 ± 0.31
TTACGAATTACATATTGTACATATGCACAATTTTAA [XGTACX_site6802] | 8.56 ± 0.16
AATTAAAATACAAATGTATGCATGTCTCATATAGAA [TGCATGCA_site822] | 7.66 ± 0.7
TACATAATTTAAAATTTTATAAGTTGTAATTCGTTT [XGTACX_negctrl_site308] | 7.32 ± 0.54
TATTTATAAAAAGATTGTACATTTTTTATTATTGTA [XGTACX_site6016] | 7.45 ± 0.38
ATAAAACAACAAAGAAAATGAAAAAGTAAAAACATA [CACACA_negctrl_site596] | 7.71 ± 0.64
AAAAAAAAAAAAAAAACACACATATATCTATAATAT [CACACA_site6665] | 8.55 ± 0.35
TATACAAAATATTTTACACACACATATATATACATA [CACACA_site2616] | 8.03 ± 0.46
CATTATTTATTTTAATGTACTTATTTTTAAATTGGT [XGTACX_site8038] | 7.875 ± 0.007
AGTGCATACATGAATTGTACTTTAAAATAAATTCTA [XGTACX_site8156] | 9.7 ± 0.52
TCCTATAATAACGTCACACATTAAATTTAATAAATT [CACACA_site4506] | 7.93 ± 0.58
CATACACCCATACATACACACATACATACACCCATA [CACACA_site5124] | 8.07 ± 0.35
TCTTTTCAATTATCCTATATTCTTTTATTTTTAATT [GTGCAC_negctrl_site326] | 7.75 ± 0.61
ATATCTAAATATATTACACACAGATATCTTCCTATA [CACACA_site3701] | 7.88 ± 0.61
AACAAATAAAGCTATGACATGTTAAAATTGTTTCAC [XGTACX_negctrl_site67] | 7.49 ± 0.65
ATTCGTATGAGCATAACACACAATATCGATATTTCT [CACACA_site4165] | 7.88 ± 0.5
ATAAAGGAATTTTATACACACAACATATAAATATAT [CACACA_site7365] | 7.72 ± 0.47
AGAGAAAAATATTTGGACAAAAATAATATAATATAT [CACACA_negctrl_site656] | 7.64 ± 0.73

Sequence | gcPBM binding intensity (ln)
GATAAAGTAAAAATATGTACATATATATTTTAAGTT [XGTACX_site6439] | 7.85 ± 0.4
TATATCTGTAAATGCACACATATGTGGATATACTTA [CACACA_site5013] | 10.41 ± 0.085
TATAAATATAAATACACACACATATAGATTATAGAT [CACACA_site6429] | 7.72 ± 0.76
TCTAATAATATATACACACACATATATATTTATATA [CACACA_site2032] | 7.71 ± 0.41
TGCTACATTCTATGTACACACATATACATATATATA [CACACA_site893] | 8.16 ± 0.6
GTTCATTCATTTTAATGTACAAATTTAACTTTTTCT [XGTACX_site680] | 7.61 ± 0.48
AGAAATTATAAATACCTACACACTTATCAAAATAAA [CACACA_site2264] | 7.47 ± 0.57
TAAGACATGATATATACACACCTTGTTTTAATTTTC [CACACA_site5282] | 7.75 ± 0.44
AAATGAGAAGAAATACGTACATATAATAAAATAATT [XGTACX_site4439] | 8.03 ± 0.69
ATACATATATAAATACGTACATATATAATTATATAT [XGTACX_site8178] | 7.79 ± 0.35
ATGCATAAATTTTGAAGTACAAAAAAAAAAAATAAA [XGTACX_site7282] | 7.87 ± 0.24
TCTGTAAAGTAATGGACACACAATATATCCATTTAT [CACACA_site1536] | 7.5 ± 0.52
TTTCATTGGTTTATAAAATTATGAGATCTTAAAGAC [CACACA_negctrl_site1484] | 7.71 ± 0.52
ATATATATATATATATGTACATATATTTATATTTAT [XGTACX_site6179] | 9.22 ± 0.57
GAATAATATGGACATACACACATATACATACAGATA [CACACA_site5200] | 8 ± 0.33
TTATATATCTATAATACACACATAATAATATATTTA [CACACA_site7423] | 7.79 ± 0.35
GCTACGTAAAAAATATGTACATATGAAATATTTTGC [XGTACX_site5111] | 7.88 ± 0.61
TTAACATTATATGAAGGTACAGAAAAAAAAAAATTA [XGTACX_site8530] | 7.61 ± 0.61
TTTCTTATAGATTTTAATCCTCTATCAAAAAAAGAA [GTGCAC_negctrl_site162] | 7.63 ± 0.38
AAATAAAAAAAATTTGCACACCTTCAAAGTAATATA [CACACA_site1583] | 8.995 ± 0.064
CATACAGTATTATACTGTACCCATACAAAAAAATAT [XGTACX_site6130] | 7.89 ± 0.57
CTTATTTAAGAGTATGAACACACATCATACACATAT [CACACA_site9205] | 7.67 ± 0.51

Sequence | gcPBM binding intensity (ln)
TTTTTAATATTCTATGCATGCATCGCATATTTGGTT [TGCATGCA_site1004] | 7.67 ± 0.73
AAAATATAATATAATGCACACATAAACAAAAAAAAA [CACACA_site8161] | 10.9 ± 0.74
TTTTATTTAACTCATAATTTTTTAAAAAACAATTAT [XGTACX_negctrl_site19] | 7.7 ± 0.49
TTTTTTTTTTTTTTGGGTACATAATAATAACAAGTG [XGTACX_site1034] | 7.9 ± 0.16
CATGTAATATTAAACACACACTCATATAACTCAATA [CACACA_site4212] | 7.66 ± 0.47
CACATATACTTCTGTGCACACGAATATTTTTCTTCT [CACACA_site1408] | 10.3 ± 0.26
AATACATATTCAAAGGTGCAAAATAAAAATATACAT [GTGCAC_site9743] | 11.2 ± 0.44
TTATAATAAGATTGTTGTACTTATATTCCTTCTATA [XGTACX_site3173] | 7.58 ± 0.59
TCGTTTCATATTTATCATGAGATAATCACACGAACA [TGCATGCA_negctrl_site497] | 7.75 ± 0.47
TGTTTTGTATATATAGCATGCAGTAAGGGAAAAAAA [TGCATGCA_site652] | 8.63 ± 0.73
TAGTTATAAGAGTTACAAAGAATACCGGAAATATAG [CACACA_negctrl_site1829] | 8.03 ± 0.63
AATGTCAATTTTAATAGTACACAAATATATATATAT [XGTACX_site521] | 9.15 ± 0.24
AATGACCATTTTTAAAATTACAAATACATACAACTG [TGCATGCA_negctrl_site420] | 7.65 ± 0.48
AAGTATTATTATAAGACACACATGTATTTAAGTATA [CACACA_site4922] | 7.74 ± 0.5
TTTTATTCCTATTTATTTATATTTTTGTCTTATATC [CACACA_negctrl_site125] | 7.59 ± 0.85
TTAAGAATATCTACATGTACATACCAAAGAAATACA [XGTACX_site3125] | 7.92 ± 0.38
ATGAACAAAATGTAATGTACGAATAATTATTCATAT [XGTACX_site4812] | 7.79 ± 0.5
GGAATAATATAAAACACACACATAAATATAAATATA [CACACA_site3376] | 7.72 ± 0.61
TAATTTTTTTTTTTTTTTTTTTTTTTTTTTTTCCTT [CACACA_negctrl_site1095] | 7.33 ± 0.49
TAATTTTTATTTATAATAATATATGACATATATCCA [XGTACX_negctrl_site359] | 7.44 ± 0.42
AAAAAAAAGTTCTACACACACAAAAAAATATTTTTT [CACACA_site2309] | 7.6 ± 0.59
TATAGACAAACACATACATGCATACATACATACATA [TGCATGCA_site273] | 8.21 ± 0.57

Sequence | gcPBM binding intensity (ln)
GTGTGCTTTTTACGAGTGCAAGTATTTTGGTGGTTA [GTGCAC_site9496] | 9.88 ± 0.2
GTACACATATAATATACACACAACAAATATGCACAT [CACACA_site1010] | 10.05 ± 0.021
ATGATCATAAGACACACACACAAAAAAAAAAAAAAA [CACACA_site6936] | 8.12 ± 0.26
CATATATATATATATTGTACAAGATTGTTTTTTTAT [XGTACX_site3913] | 7.88 ± 0.34
TCTGTGCACGCATGAAGTACAAAAAAGGTTTCCAGT [XGTACX_site5049] | 9.895 ± 0.092
CTATATACTAAATGCACACTTATATATTTATATATA [CACACA_site2454] | 10 ± 0.37
TATATTTTTTTAATATGTACATATATATATAAAACA [XGTACX_site2171] | 7.88 ± 0.16
TGAATTATAAATTATAGTACTTTATAATATGAACAT [XGTACX_site2317] | 7.64 ± 0.42
ATATATAATAAATACACACACATGTATTTATAAATA [CACACA_site5135] | 7.79 ± 0.62
ATATAAATAAATTAGTGAAAAAAAAAAAATTTTTTT [CACACA_negctrl_site945] | 7.49 ± 0.82
AATTAACAAAGACACACACACACACGCACAAAAAAA [CACACA_site6388] | 8.41 ± 0.47
TTTAAAAAAATATATACACACATATATATATATATA [CACACA_site617] | 9.44 ± 0.41
CTCCATATGAAACACACACACAAATGAAAAAAATAT [CACACA_site3018] | 8.1 ± 0.54
ATAGAAATAAAATAAAATAAAAAAAAAATAATGAAA [CACACA_negctrl_site1565] | 7.46 ± 0.59
GTCAACTTGTGATAAGTGCATATATATAATAAAATG | 9.875 ± 0.078
CGAAATAAATCTTATGCACACAAATAATTAATTAAA [CACACA_site8491] | 9.14 ± 0.26
AAAAAAATATAATATTTGAATAAATATAATAATATG [XGTACX_negctrl_site477] | 7.33 ± 0.42
AATATATAGGTATTTACACACAATGTGAGATCTATA [CACACA_site3407] | 7.54 ± 0.54
ATTTATGAAAAGTAAAGTACACACAGGAAAAAAAAA [XGTACX_site3564] | 8.44 ± 0.74
CCAATGAGGATATATACACACATACATTAAAAAAAT [CACACA_site5090] | 7.79 ± 0.61
ATATATATGTATGTATGTACTTATTTATTTATTTAT [XGTACX_site7740] | 7.76 ± 0.44

— the supplement of paper PMC11417369
